Assay results taken from the supplement of paper PMC4166925.
± gives the standard deviation of the averaged measurements. Whole data set: some 33,000 sequences, median “E-score (dimensionless, -0.5 to 0.5)” near -0.049, cut for the highest 2% near 0.37. The list shows a part of the results.

system: T1, PmTbr T-box DNA-binding domain (GST fusion); test: PBM E-score of 8-mer (E-score (dimensionless, -0.5 to 0.5)); Tbr is Tbrain of the sea star Patiria miniata (Pm) or the sea urchin Strongylocentrotus purpuratus (Sp); higher = stronger binding preference; most listed sequences are background and not binding sites; settings: the construct has about 5 more residues each side
T1 sequence: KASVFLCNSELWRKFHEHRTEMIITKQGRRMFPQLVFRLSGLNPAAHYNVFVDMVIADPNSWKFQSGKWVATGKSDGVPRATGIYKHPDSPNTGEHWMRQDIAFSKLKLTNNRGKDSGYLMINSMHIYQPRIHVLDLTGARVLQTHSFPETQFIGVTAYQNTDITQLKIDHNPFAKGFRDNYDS
Procedure, shortened: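 Each ungapped 8-mer received an enrichment E-score from the Universal PBM Analysis Suite, averaged over duplicate arrays. The proteins were Tbr T-box DNA-binding domains, covering the whole T-box plus about five flanking residues, fused to GST and expressed in BL21 E. coli at 20 °C before glutathione affinity purification. Universal Agilent oligonucleotide arrays were made double-stranded by primer extension and incubated with 200 nM protein in PBS (pH 7.5). The arrays were then scanned and quantified, and every 8-mer was scored from probe intensities.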

Sequence	PBM E-score of 8-mer
ACGATCAG	-0.0946 ± 0.0096
TGAAAGCA	0.0923 ± 0.034
CTGAGCCA	0.00229 ± 0.066
CCCAGAAG	0.0111 ± 0.011
CAACCAGA	-0.189 ± 0.068
AGCCTTGG	-0.1206 ± 0.00055
AGAATACT	-0.3308 ± 0.0016
AACTAGTA	-0.177 ± 0.043
AAGTGTCC	0.281 ± 0.011
AACGAGTT	0.0308 ± 0.073
CAACTAAA	0.0404 ± 0.062
GCACTCTA	0.0446 ± 0.058
ATGTATGA	-0.231 ± 0.075
CCCATTGA	-0.104 ± 0.044
GCCATCAC	0.163 ± 0.011
CGAGGCTA	-0.0749 ± 0.035
CAAGTAAC	0.112 ± 0.017
AGTCAAAC	-0.0247 ± 0.068
GCAAACAA	-0.00852 ± 0.045
GGCGTCCA	-0.036 ± 0.015
CAACGTTG	0.229 ± 0.0073
CTCGTTAA	0.107 ± 0.035
AATTCGGA	-0.214 ± 0.057
ACGTTTAA	-0.206 ± 0.055
ATCTTTGC	0.035 ± 0.042

Sequence	PBM E-score of 8-mer
ACATAGGG	-0.102 ± 0.032
GCTTTACA	-0.0756 ± 0.045
GATAAACA	0.0427 ± 0.07
CGGATCAG	-0.176 ± 0.069
ACGGGTAT	0.0101 ± 0.015
CAACATCG	-0.0443 ± 0.013
GGCAACTA	0.00553 ± 0.027
CGTCCTAC	-0.299 ± 0.082
TCCTTACA	-0.00174 ± 0.052
ATAGTAAT	-0.137 ± 0.12
AGACCAGG	-0.0498 ± 0.065
AGTTACAA	0.0112 ± 0.023
ATCTGGAA	-0.123 ± 0.065
CCGTACAC	0.0864 ± 0.039
CAAGGGGG	-0.175 ± 0.099
AAGTGTGA	0.48967 ± 0.00029
GCCACGCA	-0.115 ± 0.077
ATGACGTG	0.142 ± 0.023
ACGAAGCC	-0.0268 ± 0.027
GACCACGA	-0.112 ± 0.01
CACGCGTA	0.197 ± 0.036
AATGCTGC	-0.103 ± 0.025
CTGTACCA	0.0194 ± 0.043
ACACTAAG	0.197 ± 0.046
TCTATGCA	-0.169 ± 0.015

Sequence	PBM E-score of 8-mer
GGAAAAAC	-0.0984 ± 0.077
GTGCTAGA	0.382 ± 0.0098
GCAGTGAC	0.0969 ± 0.043
GGCATTCA	-0.0793 ± 0.061
AACTAGAT	-0.258 ± 0.0078
GACGGCGC	0.193 ± 0.059
AGCGCAAA	0.201 ± 0.039
GAACATCC	-0.122 ± 0.02
CCCATACC	-0.0598 ± 0.027
CTGTCTCC	-0.101 ± 0.14
ACGCTCCT	0.0387 ± 0.003
TACAGGTA	-0.0543 ± 0.0011
AAATCACT	-0.0226 ± 0.039
AGCGCATC	-0.0205 ± 0.0078
TGCTGAAA	0.0466 ± 0.016
ATGCCATG	-0.0526 ± 0.026
CATCGCGG	0.196 ± 0.032
AGGAATAT	-0.142 ± 0.023
CGAGACGA	0.0752 ± 0.029
GGCGCCCC	-0.0463 ± 0.019
ATTAGGCA	0.0641 ± 0.032
AAACCGGC	-0.128 ± 0.049
GCTTGCAC	0.178 ± 0.012
CCTATCAC	0.311 ± 0.019
GGGAGAAA	-0.1242 ± 0.00032

Sequence	PBM E-score of 8-mer
GTGTATTA	-0.015 ± 0.035
CAGGTTGC	0.0654 ± 0.011
CCGGCTAG	0.00455 ± 0.013
GGCCACCC	-0.101 ± 0.023
AGTGCACT	-0.103 ± 0.027
AGGCTGCA	0.0452 ± 0.014
ACTGAACT	-0.181 ± 0.011
GACCTATA	-0.179 ± 0.08
GGACAGCC	-0.127 ± 0.07
GGCCGACA	0.0775 ± 0.14
CGCAGCCC	-0.183 ± 0.0047
AACCCTCA	-0.0541 ± 0.0098
GCGCTAGC	0.176 ± 0.039
AGCGGCCG	0.00312 ± 0.042
CGGCTTCC	-0.0412 ± 0.097
ATCAATCA	0.138 ± 0.08
CGGCTGAA	-0.209 ± 0.054
CACATTGG	0.281 ± 0.053
GCAAGACC	-0.115 ± 0.076
CCTTCGGC	-0.0428 ± 0.025
ATCTGGAG	-0.0671 ± 0.11
TAGGTTGA	0.00575 ± 0.0052
CCGTGTGC	-0.0298 ± 0.043
ACTAGTGG	0.0669 ± 0.0084
AGTCTGTC	-0.151 ± 0.028

Sequence	PBM E-score of 8-mer
AGAGACGG	-0.15 ± 0.096
ATAGCAAC	0.165 ± 0.0021
AAGAGGGA	-0.114 ± 0.042
CGACGCAA	0.0226 ± 0.043
TCGCCGCA	-0.0222 ± 0.026
TAATACCA	-0.108 ± 0.022
AGCGTCGG	-0.0569 ± 0.081
ACAGAGAG	-0.0916 ± 0.12
AACTTCTA	-0.207 ± 0.031
CCAGTTTA	-0.0969 ± 0.018
ACGAGACC	-0.024 ± 0.015
CGCAGGCG	0.311 ± 0.013
AGCGATAG	0.0622 ± 0.041
CCATGTTA	-0.052 ± 0.064
CCTCGTAA	-0.143 ± 0.069
TAGGCGAA	-0.00988 ± 0.019
AGGACCTA	-0.182 ± 0.032
AACAACGA	0.012 ± 0.057
CAGGGCGG	-0.113 ± 0.029
AATGACAA	0.102 ± 0.06
GCGGTCAC	0.116 ± 0.087
AGGTCACA	0.27 ± 0.017
AACCGCTA	0.137 ± 0.0032
CGTCAAAC	0.113 ± 0.0074
ATCAATAA	-0.279 ± 0.033

Sequence	PBM E-score of 8-mer
AAGTCGAA	-0.24868 ± 0.00016
CGCTGCGC	0.0144 ± 0.018
CTTTGAAA	-0.236 ± 0.015
TCAGTCCA	-0.136 ± 0.021
GCTGTCCA	-0.0682 ± 0.095
AAGCTAGT	0.0346 ± 0.029
AACCAATT	-0.0573 ± 0.049
CCAGTTCC	-0.143 ± 0.0064
TATAGCCA	-0.0771 ± 0.047
CGGCGGCA	0.0897 ± 0.064
CGGCAGTC	-0.129 ± 0.048
ATCTCGCC	0.206 ± 0.017
TCCGGCCA	-0.143 ± 0.04
ATACGTTG	-0.0321 ± 0.038
CGCATCAC	0.187 ± 0.046
CATGTCGA	-0.062 ± 0.00094
TAATTTGA	-0.128 ± 0.074
AAAGATCT	-0.0992 ± 0.087
TACTTATA	0.0474 ± 0.074
AAACCTTT	-0.143 ± 0.0017
ACGCTTCT	0.106 ± 0.035
CCCGTACA	-0.0694 ± 0.029
GATAGCTA	-0.0637 ± 0.074
CGACTGAC	0.0283 ± 0.029
CAAATATC	-0.0117 ± 0.1

Sequence	PBM E-score of 8-mer
GTACCAGA	-0.182 ± 0.033
TGGTTTAA	-0.115 ± 0.037
ATCTCGTG	-0.0464 ± 0.013
ATTCCCCC	-0.328 ± 0.037
ATCACTCC	0.0223 ± 0.059
ATACGCAG	0.073 ± 0.021
CACGCCCC	0.193 ± 0.057
GAGCTGGA	-0.0185 ± 0.037
GCCAACAC	0.354 ± 0.0042
GTGCAGTA	-0.113 ± 0.051
CAATCTTC	0.0211 ± 0.036
AACGACCG	-0.118 ± 0.043
AGATAGCG	0.151 ± 0.059
AGTAAATA	-0.177 ± 0.015
ATCTCTGC	-0.109 ± 0.0094
CGACGCTC	0.0138 ± 0.043
GTTTGCAA	0.125 ± 0.04
AGGTTGTC	0.074 ± 0.065
CTGGGCCC	-0.364 ± 0.02
CTACGAGC	-0.287 ± 0.073
CCTAGTCG	0.156 ± 0.019
ATATTTTC	-0.17 ± 0.031
